Measured values published in the supplement of paper PMC4466236.
In all, about 33,000 sequences were measured (“E-score (dimensionless, -0.5 to 0.5)”: median about -0.058, highest 2% from about 0.35 on). The list shows a part of the results.

system: MvaT; test: PBM 8-mer E-score (mean of HK and ME arrays) (E-score (dimensionless, -0.5 to 0.5)); higher = stronger relative binding preference; most listed sequences are background and not binding sites
In short: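 Full-length P. aeruginosa MvaT carrying an N-terminal glutathione S-transferase tag was tested by protein binding microarray following a previously described protocol. Two universal double-stranded 60-mer arrays, ME and HK, were used, each with a constant 25-mer primer region and a variable 35-mer region covering all 8-mers. The rank-based E-score is the mean of the two arrays, parsed with a custom script. Its range runs from -0.5 to 0.5 for each 8-mer.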

Sequence	PBM 8-mer E-score
ACCCCGGA	-0.207
TGTACACA	-0.00119
GCACTCAA	-0.124
AATCAAAT	0.229
ACCAGAAC	-0.0716
AGAAAGGA	-0.119
ATTTAACA	0.376
CGCGTCAG	-0.159
GAGAGGAA	-0.168
ATACTCAT	0.175
CCAATTCC	0.0341
ATTATCGC	0.142
CGGAAAAA	-0.0606
AACTGTGG	-0.0417
AGGCAGGC	-0.258
ATGGACAA	0.0796
AGGGTATG	-0.0579
AGAGACTC	-0.164
CGAGTGCG	-0.145
CTAGAGTC	-0.248
ATGTATCG	0.0953
ATCAGGTG	-0.0852
GTGTAAAC	0.0891
AAGGCATC	-0.11
CTAAAGCA	-0.0922

Sequence	PBM 8-mer E-score
ACACTGCA	-0.00818
ACGTTTGG	-0.0109
ACCGGGGA	-0.167
CTTCTTCC	-0.3
AGCCAACC	-0.165
AAGACGAC	-0.103
TGAGATCA	-0.0696
TAAATGCA	0.335
GGAGTCCA	-0.133
TAATTAAA	0.447
ATCATTGG	0.00282
CATCCCTC	-0.0998
CAACGGCG	-0.221
AGTGTTGC	-0.0548
AAGAGAAG	0.0777
AGCGTTGC	-0.286
AGTCAGAG	-0.21
TAATCGCA	0.208
AATATGTA	0.365
AGGTTCGC	-0.259
ACGACAGG	-0.225
ACTCACCC	-0.106
ACTCCGCC	-0.239
TAGAACGA	0.104
ATACACCC	-0.0142

Sequence	PBM 8-mer E-score
CAAGTGAA	-0.118
TGAACGAA	0.071
CGTTTTAG	0.0439
GGACCACA	-0.0353
GCTCAGGA	-0.177
AAAGTGTT	0.17
ACGAAGTA	0.0657
ACTCGGGG	-0.116
GGACTGTA	0.0546
ACATCGCT	-0.121
CGGCAAAC	0.0549
AATGCGGT	-0.00428
CCTCCAGA	-0.23
AGGCAGAT	-0.191
AGGTTCCA	-0.194
ATAGGATG	-0.00901
AATCTATA	0.235
AAGCGTAC	-0.128
CGGGGTGA	-0.309
AGCGAGGC	-0.239
ATAGTAAG	0.301
CACGTACA	0.0858
AGTCCGCC	-0.117
CGCAACCG	-0.128
GATTTAGA	0.0137

Sequence	PBM 8-mer E-score
GCGAGTTA	0.0292
CAGCTTCG	-0.181
GACTTCGA	-0.0309
TAACATGA	0.213
TCGGTGAA	-0.0285
AAGCTTAC	-0.0497
ATTAAGCA	0.308
CAGTGCTC	-0.223
AAAACCTC	-0.0209
CGCCCTGC	-0.238
GAGGGAGA	-0.1
CGAGGTTA	0.0753
CCTTTTTA	0.0589
TGAGGCCA	-0.265
ACTGTGCA	-0.0352
AGCCTACG	-0.316
CATTGGAC	-0.133
CGTAAATC	-0.0508
AGTCAGGG	-0.214
AGCCTTGC	-0.244
ACTATGTC	0.0542
ATAGGCTG	-0.0757
GCTTCGAC	-0.16
ACGTAGGG	-0.17
GTGGTTGA	-0.0208

Sequence	PBM 8-mer E-score
AGATGGAA	-0.1
AATTTAGT	0.303
TGCGGCCA	-0.279
CGAGCAGC	-0.167
GAGGATCA	-0.141
CCAAATGG	-0.134
CGGTTCGC	-0.173
AAGGCGTA	-0.111
ACACCCGC	-0.091
GACCAAAC	-0.0191
TAGTCCGA	-0.111
GCTCAGCA	-0.189
AAGTATTA	0.388
CTTGGACA	-0.17
AGCCCTAT	-0.14
CTTACACC	0.172
AAAAACAT	0.166
ACCCCTAC	-0.29
AATAGGTG	0.164
AGTTTTTA	0.247
AGGAAGCA	-0.123
AGATTCAT	0.135
CAGTCGCC	-0.272
TGAACCCA	-0.000255
GAAACTTA	0.235

Sequence	PBM 8-mer E-score
CGTAGAAA	0.0577
AAACTTTA	0.357
AGCCGGAT	-0.211
CACAACAA	0.258
AATCTGGT	0.0291
CGTACTAC	0.0793
CCTGAGGA	-0.22
CAAGTGGA	-0.173
ATTGCAGA	-0.0207
CCGTAACC	0.0259
AGGGCACT	-0.175
ATCTCTTG	0.0688
CTCCCATA	-0.12
GCTACGCC	-0.323
GAGGGAAA	-0.132
CCTCATGC	-0.328
CACCCTGG	-0.306
ACAGCCAC	-0.173
ACTTCATG	0.0205
CACCCGTA	-0.039
AAATTCAT	0.206
ATCGTCCG	-0.132
ACGCGCCG	-0.262
AATCCATG	-0.0623
AGAGGAGC	-0.346

Sequence	PBM 8-mer E-score
AACAGTTA	0.31
CCGCGAAC	-0.117
GGCGGAAA	-0.0452
AGGCTCAG	-0.191
CCTAGGTA	-0.0515
CGGGAAAC	-0.121
ATACCCCC	-0.237
CCCCCACC	-0.297
ATACTCTC	0.0782
CACGGGAA	-0.129
GAGAACCA	-0.183
ACTCTGAG	-0.0985
CGGTCGTC	-0.347
ACCATGGT	-0.177
CCCCTTTA	-0.176
CCCAGACG	-0.128
CCGATGCC	-0.243
ATTTGCGG	-0.063
TAGCGAGA	-0.013
AATCGAAG	-0.00549
CAATCCTG	-0.039
CACTCCGG	-0.225
